The whole screen tested about 100,000 compounds, of which about 250 (0.25%) were called active. This list was built around the results that the source calls inconclusive (neither active nor inactive); the mix of calls is not that of the screen. The call rests on the fitted dose curve; in most records, active means well fitted inhibition curve with a large enough effect; inconclusive means small, poorly fitted or top-dose-only effect; inactive means flat fitted curve, though single readings scatter. Potencies of inconclusive entries are left out as doubtful fits.
Each compound was assayed against Alanine aminotransferase 2 (Homo sapiens) (UniProt Q8TD30) (assay: Primary qHTS assay for inhibitors of Glutamate pyruvate transaminase 2 (GPT2)). Conditions: Recombinant GPT2, coupled pyruvate oxidase/HRP Amplex Red fluorescence; series mostly up to 57.7 µM.
Sequence of UniProt Q8TD30 (Q8TD30 whole entry, looked up): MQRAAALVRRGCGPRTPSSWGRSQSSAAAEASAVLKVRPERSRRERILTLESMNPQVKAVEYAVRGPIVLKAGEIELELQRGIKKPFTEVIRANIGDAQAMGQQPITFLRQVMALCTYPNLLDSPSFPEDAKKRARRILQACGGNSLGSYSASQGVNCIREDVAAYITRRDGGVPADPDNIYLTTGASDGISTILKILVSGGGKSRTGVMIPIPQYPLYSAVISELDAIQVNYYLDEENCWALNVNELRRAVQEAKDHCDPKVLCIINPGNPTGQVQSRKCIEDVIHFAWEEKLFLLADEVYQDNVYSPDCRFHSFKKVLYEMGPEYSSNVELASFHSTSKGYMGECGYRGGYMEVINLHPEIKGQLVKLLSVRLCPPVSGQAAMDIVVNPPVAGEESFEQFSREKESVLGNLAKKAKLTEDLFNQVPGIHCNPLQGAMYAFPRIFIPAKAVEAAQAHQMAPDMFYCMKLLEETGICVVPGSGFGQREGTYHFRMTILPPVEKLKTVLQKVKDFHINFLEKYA
Method in brief: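 Fluorescence of coupled pyruvate oxidase/HRP/Amplex Red system (50uM Amplex, 30 min, dark) reports pyruvate formed by GPT2. Enzyme reaction: 10ng/uL GPT2, 2mM L-alanine, 250uM a-KG, 30 min room temperature, pH 7.5; 50uM AOA control.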
With `O=C1N(Cc2ccccn2)C[C@H]2CN(Cc3nccs3)CCN12` the Potency was “inactive”.
With `COC1CC(OC2CCC3(C=O)C(CCC4C3CCC3(C)C(C5=CC(=O)OC5)CCC43O)C2)OC(C)C1OC1OC(CO)C(O)C(O)C1O` (stereo not drawn) the Potency was “inactive”.
`COCC(=O)NC[C@H]1C[C@@H]2CCN1C[C@@H]2CN1CCCCC1` was tested, and the Potency was inconclusive [inhibitor, partial curve, poor fit].
For `CCn1cc(CN2CCN(C(=O)Cc3c(C)noc3C)CC2)ccc1=O`, the Potency was inconclusive [inhibitor, single point].
`COc1ccc(NC(=O)N2[C@H]3CC[C@@H]2c2cncnc2C3)cc1OC` was tested, and the Potency was inconclusive [inhibitor, single point].
In the case of `COc1cccc([C@@H]2CCN(Cc3[nH]c4ccccc4c3C)C[C@H]2O)c1`, the Potency is reported as inconclusive [inhibitor, single point].
With `CC(C)(C)NCC(O)c1cc(Cl)c(N)c(Cl)c1` (stereo not drawn) the Potency was inconclusive [inhibitor, single point].
With `O=C1NCc2ccccc2CC12CCCN(Cc1ccccn1)C2` (stereo not drawn) the Potency was “inactive”.
For `COc1cc2c(cc1OCC1CC1)NC(=O)C21CCN(c2nc(C)cnc2C)CC1`, the Potency was “inactive”.
`Cn1nc(-c2ccc3ccccc3c2)cc1[C@H]1CN2CC[C@H]1C[C@@H]2CNC(=O)NCc1ccccc1` was tested, and the Potency was inconclusive [inhibitor, full curve].
For `O=S(=O)(NC[C@H]1C[C@@H]2CCN1C[C@@H]2CN1CCc2ccccc21)c1ccccc1`, the Potency was inconclusive [inhibitor, full curve].
In the case of `O=C(c1ccn[nH]1)N1[C@H]2CC[C@@H]1c1cnc(-c3ccccc3)nc1C2`, the Potency is reported as “inactive”.
For `NNC(N)=O`, the Potency was inconclusive [inhibitor, single point].
In the case of `Cn1nc(-c2ccc(F)cc2)cc1[C@H]1CN2CC[C@H]1C[C@@H]2CNC(=O)c1cccs1`, the Potency is reported as inconclusive [inhibitor, full curve, poor fit].
`N#C[C@@H](O[C@@H]1O[C@H](CO[C@@H]2O[C@H](CO)[C@@H](O)[C@H](O)[C@H]2O)[C@@H](O)[C@H](O)[C@H]1O)c1ccccc1` was tested, and the Potency was inconclusive [inhibitor, full curve, poor fit].
In the case of `COc1cc2c(cc1Oc1ccccc1)NC(=O)C21CCN(Cc2ccccn2)CC1`, the Potency is reported as inconclusive [inhibitor, single point].
`CC(C)C1(OO)C=C2C(=O)CC3C(C)(C(=O)O)CCCC3(C)C2CC1` (stereo not drawn) was tested, and the Potency was inconclusive [inhibitor, single point].
For `FC(F)(F)CN1C2CCC1CN(c1nccc(C(F)(F)F)n1)C2`, the Potency was inconclusive [inhibitor, single point].
For `CC(N)Cc1c[nH]c2ccc(O)cc12` (stereo not drawn), the Potency was inconclusive [inhibitor, full curve, poor fit].
`CN(N=O)c1cc(O)ccc1O` was tested, and the Potency was inconclusive [inhibitor, full curve, poor fit].
In the case of `CCCS(=O)(=O)Nc1ccc(=O)n2c1[C@@H]1C[C@@H](CN(C(=O)c3ccc(F)cc3)C1)C2`, the Potency is reported as inconclusive [inhibitor, full curve, poor fit].
In the case of `NC(Cc1cc(O)c(O)cc1O)C(=O)O` (stereo not drawn), the Potency is reported as inconclusive [inhibitor, partial curve].
In the case of `Cc1ccccc1-c1ccc2n(c1=O)C[C@H]1C[C@@H]2CN(C(=O)CCC(=O)O)C1`, the Potency is reported as inconclusive [inhibitor, single point].
In the case of `COc1ccc(NC(=O)N2[C@H]3CC[C@@H]2c2cnc(C)nc2C3)cc1OC`, the Potency is reported as inconclusive [inhibitor, single point].
For `C[C@]12N[C@H](Cc3ccccc31)c1ccccc12`, the Potency was inconclusive [inhibitor, partial curve, poor fit].
For `CC(C)CCN1CCC2(CC1)CC(c1cccnc1)=NO2`, the Potency was inconclusive [inhibitor, full curve, poor fit].
`CCN(CC)C(C)C(=O)c1ccccc1` (stereo not drawn) was tested, and the Potency was inconclusive [inhibitor, single point].
`CCO[C@H]1CN(C(=O)C2(c3ccccc3)CCNCC2)C[C@@H]1O` was tested, and the Potency was inconclusive [inhibitor, single point].
`c1cc(CN2C[C@H](c3ccc4c(c3)OCO4)[C@@H]3[C@H]2C2CCN3CC2)ccn1` was tested, and the Potency was “inactive”.
With `Cc1cc(CN2CCCC3(C2)NC(=O)c2ccccc2O3)no1` (stereo not drawn) the Potency was “inactive”.
In the case of `CN(C)c1ccc(CC(=O)N2CCN(Cc3ccccc3)CC(O)C2)cc1` (stereo not drawn), the Potency is reported as “inactive”.
`Cn1nc(-c2ccc3ccccc3c2)cc1[C@H]1CN2CC[C@H]1C[C@@H]2COC(=O)Nc1ccccc1` was tested, and the Potency was inconclusive [inhibitor, single point].
For `Cc1cccc(OCC(=O)N2[C@H]3CC[C@@H]2c2cnc(C)nc2C3)c1`, the Potency was inconclusive [inhibitor, single point].
`CCCN1CCc2cc(O)cc3c2[C@H]1Cc1ccc(O)c(O)c1-3` was tested, and the Potency was inconclusive [inhibitor, single point].
In the case of `CC(=O)O[C@H]1CC[C@@]2(CI)C(=CC[C@@H]3[C@@H]2CC[C@]2(C)C(=O)CC[C@@H]32)C1`, the Potency is reported as inconclusive [inhibitor, single point].
For `O=C(N1CCCC1)N1C2CCC1CN(Cc1cccnc1)C2`, the Potency was inconclusive [inhibitor, partial curve, poor fit].
With `CC(=O)OCC1=C(C(=O)O)N2C(=O)[C@@H](N)[C@H]2SC1` the Potency was inconclusive [inhibitor, partial curve, poor fit].
For `C#C[C@H]1CN2CC[C@H]1C[C@@H]2CNS(=O)(=O)c1ccc(OC)cc1`, the Potency was inconclusive [inhibitor, full curve, poor fit].
With `O=C(O)CN1CCC[C@]2(C(=O)O)CN(Cc3ccncc3)CC[C@@H]12` the Potency was inconclusive [inhibitor, single point].
In the case of `C#C[C@H]1CN2CC[C@H]1C[C@@H]2COC(=O)Nc1ccc(Br)cc1`, the Potency is reported as inconclusive [inhibitor, single point].
In the case of `COc1cc2c(cc1OCc1ccccc1)NC(=O)C21CCN(c2ncc(F)cn2)CC1`, the Potency is reported as inconclusive [inhibitor, single point].
For `O=C1NC[C@H]2CN(Cc3nccs3)CCN12`, the Potency was inconclusive [inhibitor, full curve, poor fit].
In the case of `C#C[C@H]1CN2CC[C@H]1C[C@@H]2CNC(=O)C1CC1`, the Potency is reported as inconclusive [inhibitor, single point].
For `C=C[C@H]1CN2CC[C@H]1C[C@@H]2CNC(=O)Nc1ccc(OC(F)(F)F)cc1`, the Potency was “inactive”.
In the case of `FC(F)(F)CN1C2CCC1CN(c1nc(Cl)nc3nc[nH]c13)C2`, the Potency is reported as inconclusive [inhibitor, full curve, poor fit].
In the case of `Oc1ccc([C@H]2CNCc3c2ccc(O)c3O)cc1O`, the Potency is reported as inconclusive [inhibitor, single point].
`COC(=O)CC1CC2(C(=O)c3c(O)cccc3C2(O)C(=O)OC)C(C)O1` (stereo not drawn) was tested, and the Potency was inconclusive [inhibitor, single point].
`COc1ccc(NC(=O)NC[C@H]2C[C@@H]3CCN2C[C@@H]3c2cc(-c3ccc(OC)c(OC)c3)nn2C)cc1` was tested, and the Potency was “inactive”.
For `Cc1cc(C(=O)CN2CCCC2)c(C)n1-c1ccc(F)cc1`, the Potency was inconclusive [inhibitor, single point].
`CN1C(=O)N(C)C2(CCN(Cc3cn4cc(Cl)ccc4n3)C2)C1=O` (stereo not drawn) was tested, and the Potency was “inactive”.
`CC(=O)c1ccc(NC(=O)NC[C@H]2C[C@@H]3CCN2C[C@@H]3CN2CCCCC2)cc1` was tested, and the Potency was “inactive”.
`N#Cc1cccc(NC(=O)Nc2ccc3n(c2=O)C[C@H]2C[C@@H]3CN(C3CCOCC3)C2)c1` was tested, and the Potency was inconclusive [inhibitor, single point].
In the case of `CCN(CC)C(=O)[C@@H]1C=C2c3cccc4[nH]cc(c34)C[C@H]2N(C)C1`, the Potency is reported as inconclusive [inhibitor, partial curve, poor fit].
For `COc1cc(C[C@@H](C)N)c(OC)cc1Br`, the Potency was inconclusive [inhibitor, single point].
In the case of `CC(C)Oc1cccc(NC(=O)c2ccccc2C(F)(F)F)c1`, the Potency is reported as inconclusive [inhibitor, partial curve, poor fit].
For `CCOCCOC(C)=O`, the Potency was inconclusive [inhibitor, single point].
`CCCN(CCC)CCc1ccc(O)c(O)c1` was tested, and the Potency was inconclusive [inhibitor, partial curve, poor fit].
With `COc1ccc(NC(=O)N2[C@H]3CC[C@@H]2c2cnc(C)nc2C3)c(C)c1` the Potency was inconclusive [inhibitor, single point].
With `COc1cc2c(cc1Oc1ccccc1)NC(=O)C21CCN(C(=O)c2scnc2C)CC1` the Potency was inconclusive [inhibitor, single point].
For `Cc1cc(SCc2sc(-c3ccc(C(F)(F)F)c(F)c3)nc2C)ccc1OCC(=O)O`, the Potency was inconclusive [inhibitor, single point].
With `O=C(Nc1cccc(C(F)(F)F)c1)OC[C@H]1C[C@@H]2CCN1C[C@@H]2c1cc(C2CCCC2)nc(-c2ccncc2)n1` the Potency was “inactive”.
For `O=C(C1CC1)N1C[C@H]2CN(Cc3cccnc3)C[C@@]2(C(=O)O)C1`, the Potency was “inactive”.
With `O=S(=O)(NC[C@H]1C[C@@H]2CCN1C[C@@H]2CN1CCc2ccccc21)c1ccc(Cl)cc1` the Potency was inconclusive [inhibitor, partial curve, poor fit].

— PubChem BioAssay AID1671188 (National Center for Advancing Translational Sciences (NCATS), 2021)
Further: nearly all actives have a fitted effect of over 60% in size.
Potency means the concentration at half of the fitted maximal effect; tags describe the fitted curve by direction and shape.
